# Measurements: PMC4336329 (PLoS ONE, 2015)
# Among all 310,000 compounds or so, about 14,000 (4.5%) showed an effect of 50% or more. Effects have a minus sign here. The list shows a part of the results.
# Target: human ether-à-go-go-related gene (hERG) potassium channel (human, UniProt Q12809)
# Assay: primary screen, population patch clamp on CHO cells stably expressing hERG
# 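Also: peak tail current of the secondary pulse compared with the same well before compound.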
# human ether-à-go-go-related gene (hERG) potassium channel, sequence (Q12809 whole entry, looked up): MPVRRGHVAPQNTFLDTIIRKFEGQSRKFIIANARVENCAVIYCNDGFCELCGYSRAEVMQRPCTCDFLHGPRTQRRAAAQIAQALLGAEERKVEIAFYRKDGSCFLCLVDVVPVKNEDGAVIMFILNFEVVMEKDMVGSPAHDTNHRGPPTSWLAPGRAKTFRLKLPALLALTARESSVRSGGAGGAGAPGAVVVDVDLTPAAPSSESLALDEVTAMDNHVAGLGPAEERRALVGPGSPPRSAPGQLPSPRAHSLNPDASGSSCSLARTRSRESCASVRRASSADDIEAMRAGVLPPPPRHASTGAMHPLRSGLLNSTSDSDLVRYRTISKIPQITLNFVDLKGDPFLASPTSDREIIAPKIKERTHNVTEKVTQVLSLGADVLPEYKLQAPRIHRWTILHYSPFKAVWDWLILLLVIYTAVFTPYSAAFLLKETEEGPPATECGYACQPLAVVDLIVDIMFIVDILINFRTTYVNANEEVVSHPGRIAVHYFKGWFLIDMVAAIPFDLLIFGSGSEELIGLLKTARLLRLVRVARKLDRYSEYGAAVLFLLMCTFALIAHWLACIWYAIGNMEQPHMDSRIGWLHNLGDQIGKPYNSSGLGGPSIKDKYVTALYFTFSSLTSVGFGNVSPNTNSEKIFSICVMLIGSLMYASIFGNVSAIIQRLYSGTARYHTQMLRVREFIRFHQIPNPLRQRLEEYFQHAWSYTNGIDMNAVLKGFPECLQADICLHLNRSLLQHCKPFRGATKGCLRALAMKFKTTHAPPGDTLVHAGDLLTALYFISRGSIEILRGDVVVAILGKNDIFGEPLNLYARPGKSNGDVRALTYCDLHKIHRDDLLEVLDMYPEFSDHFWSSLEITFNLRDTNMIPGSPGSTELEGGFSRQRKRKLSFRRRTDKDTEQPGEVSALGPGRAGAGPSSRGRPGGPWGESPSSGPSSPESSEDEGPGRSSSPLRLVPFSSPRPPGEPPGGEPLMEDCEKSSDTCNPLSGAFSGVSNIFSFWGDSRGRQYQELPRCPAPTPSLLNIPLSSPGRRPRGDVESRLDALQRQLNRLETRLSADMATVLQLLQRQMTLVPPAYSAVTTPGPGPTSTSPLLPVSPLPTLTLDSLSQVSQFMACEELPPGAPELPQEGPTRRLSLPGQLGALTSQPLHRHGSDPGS
row,Structure (SMILES),"hERG current change (%, negative = inhibition) at 10uM [%]"
1,Cc1cc(C(=O)NC2CCCCC2)c(C)o1,0.345
2,CC(C)(C)NC(=O)CN(C(=O)CCC(=O)Nc1nccs1)c1ccc(F)c(Cl)c1,-11.8
3,O=C(CCN1C(=O)C2CCCCC2C1=O)Nc1ccc(Br)cc1F (centres unmarked),-4.16
4,Cc1c(S(=O)(=O)N2CCN(c3ccc(F)cc3)CC2)c(=O)n(C)c(=O)n1C,-24.7
5,COc1ccc(-c2cc(C(=O)Nc3cccc(Cl)c3)no2)cc1,19.9
6,CCOc1cc(/C=N/NC(N)=O)ccc1OC(=O)c1ccc(C)cc1,7.74
7,Cc1cccc(C)c1Nc1ncnc2ccccc12.Cl,16.8
8,Brc1cc2c(cc1C1Nc3ccccc3C3C=CCC31)OCO2 (centres unmarked),-6.37
9,Cc1nc(SCC(=O)c2cccs2)c2oc3ccccc3c2n1,13.4
10,COc1cc(Cl)c(C)cc1NC(=O)CSc1nnc(CCC(=O)O)c(=O)[nH]1,17.9
11,CN=C1CC(SC)=C1c1ccc(C)cc1,-7.16
12,O=C(c1ccccc1)[C@H]1[C@H](c2ccccc2)[C@@]2(N=C(c3ccccc3)OC2=O)C2c3ccccc3C=NN21 (some centres unmarked),2.86
13,Cc1nn(CC(=O)NC(C)CCc2ccccc2)c(=O)c2nn(-c3ccccc3)c(C)c12 (centres unmarked),23
14,CCC(C)NC(=O)CSc1ccc(Cl)cc1 (centres unmarked),4.32
15,COc1cc(SSc2cc(OC)cc([N+](=O)[O-])c2N)c(N)c([N+](=O)[O-])c1,7.62
16,COc1ccc(CC(NC(C)=O)C(=O)NC2CCN(c3nnnn3-c3ccccc3)CC2)cc1OC (centres unmarked),14.2
17,CC(OC(=O)Cc1c[nH]c2ccccc12)C(=O)Nc1ccc(S(N)(=O)=O)cc1 (centres unmarked),0.959
18,Cc1ccc(S(=O)(=O)Cn2nnnc2CN2CCN(Cc3ccc4c(c3)OCO4)CC2)cc1,-28.7
19,Cn1c(CC(=O)Nc2ccccc2F)nnc1SCC(=O)NC1=NCCS1,20.6
20,O=C(Cn1nc(-c2cccc(Cl)c2)ccc1=O)NCC1COCCO1 (centres unmarked),-4.1
21,CCc1cccc(NS(=O)(=O)c2c(C)nc3scc(C)n3c2=O)c1,9.84
22,Cc1cc(NC(=O)Cn2c(=O)n(Cc3ccccc3)c(=O)c3ccccc32)no1,8.1

row,Structure (SMILES),"hERG current change (%, negative = inhibition) at 10uM [%]"
1,CC(C(=O)Nc1ccc(C(=O)O)c(O)c1)N1C(=O)/C(=C\c2ccco2)SC1=S (centres unmarked),28.8
2,Cc1ccc(Nc2nc(Cl)c(C=O)s2)cc1Cl,8.41
3,CC(C)N(C(=O)c1ccccc1-c1ccccc1)C(C)C,-18.9
4,CCc1cc(CNC(=O)c2ccc3nc(Cc4ccc(OC)c(OC)c4)oc3c2)on1,5.04
5,CCCc1cc(C(=O)O)c2ccccc2n1,2.31
6,Cc1ccc(S(=O)(=O)N(C)c2ccccc2C(=O)N2CCOCC2)cc1,4.91
7,C=CCn1c(=S)[nH]c2sc3c(c2c1=O)CCCC3,18.9
8,Cc1ccc(C(CCN(Cc2ccccc2)C(=O)c2ccco2)c2ccco2)cc1 (centres unmarked),-5.13
9,CC(C)Sc1ccc([N+](=O)[O-])cc1C(=O)Nc1ccncc1,-11.7
10,CCN(CC)c1ccc(/C=C2/C(=O)ON=C2C)cc1,-20.9
11,COc1ccc(-c2ccc(SCC(=O)c3cccs3)nn2)cc1OC,-1.36
12,CSc1ccc(CN2CCC(CO)(Cc3ccc(Cl)cc3)CC2)cc1,-81.3
13,CCOc1ccc(C2c3c(oc4ccccc4c3=O)C(=O)N2CCCN2CCOCC2)cc1 (centres unmarked),7.34
14,Cc1ccc(C(=O)NCc2ccc(Cl)c(Cl)c2)o1,-10.8
15,Cn1c(=O)[nH]c(=O)c2c1nc(SCCN1CCCCC1)n2CCCc1ccccc1,-69
16,O=C(NCc1ccc(F)cc1)c1cc(S(=O)(=O)N2CCCCC2)ccc1Cl,7.59
17,C[C@H](NC(=O)c1ccco1)C(=O)NCCc1ccc(S(N)(=O)=O)cc1,15.8
18,Cc1cc(=O)n2nc(N3CCC(C(=O)NC4CCCc5ccccc54)CC3)sc2n1 (centres unmarked),-19.3
19,CCN(CC)CCn1c2c(c(SCC(=O)Nc3nccs3)nc1=O)CCCC2,-59.5
20,Cl.OCCNCc1cccc2ccccc12,20.9
21,CC1CN(C(=O)CCc2ccccc2)C(C)CN1C(=O)CCc1ccccc1 (centres unmarked),-60.4
22,CC12CC3(C)CC(C)(C1)CC(C(=O)NCCc1ccc(S(N)(=O)=O)cc1)(C2)C3,-14.9

row,Structure (SMILES),"hERG current change (%, negative = inhibition) at 10uM [%]"
1,Cc1ccc(N2CC(C(=O)NCCS(=O)(=O)N3CCN(c4ccccc4F)CC3)CC2=O)cc1 (centres unmarked),13.2
2,CN(C)S(=O)(=O)c1cccc(NC(=O)CNCc2ccccn2)c1.O=C(O)C(=O)O,12.2
3,Cn1c(=O)c2c(nc(N3CCCCC3)n2C)n(C)c1=O,-21.5
4,Cc1ccc(NC(=O)Nc2ccc3c(c2)OCO3)cc1F,-15.8
5,CN1C(=O)c2oc3ccccc3c(=O)c2C1c1ccccn1 (centres unmarked),0.972
6,Cn1nc(C(=O)Nc2ccc3c(c2)OCCO3)cc1C(=O)O,33.3
7,CC(=O)c1ccc(NS(=O)(=O)c2c(C)cc(C)cc2C)cc1,17.9
8,CC(NC(=O)C(=O)NCc1cccs1)c1ccccc1 (centres unmarked),16.9
9,Cc1ccccc1N(C)C(=O)c1coc(=O)c2ccccc12,10.3
10,Cc1ccccc1N(CC(=O)NCC1CCCO1)C(=O)CNS(=O)(=O)c1ccc(F)cc1 (centres unmarked),1.78
11,Cc1cccnc1NC(=O)CCC(=O)c1cccs1,2.93
12,COc1cc(C2C3=C(CCCC3=O)Nc3[nH]n(-c4ccccc4)c(=O)c32)ccc1O (centres unmarked),-14.2
13,CC1=C(C(=O)OC(C)(C)C)C(c2cccc3ccccc23)NC(=O)N1 (centres unmarked),8.44
14,COc1ccc(CN2C(=O)c3ccccc3C2OC)cc1 (centres unmarked),6.22
15,COc1ccccc1CN1C[C@@H]2C[C@@H](c3[nH]c4ccc(C)cc4c3C)N3CCC[C@@]23C1=O,-30.7
16,CCCCN(C(=O)C1CCCO1)c1c(N)n(CC(C)C)c(=O)[nH]c1=O (centres unmarked),-4.18
17,COc1ccc(C(=O)Nc2nnc(SCC(=O)NCc3ccco3)s2)c(OC)c1,5.5
18,O=C(CNC(=O)c1ccccc1Br)N/N=C/c1cc(Br)ccc1O,17.5
19,COc1ccc(CCC(=O)N2CCCC(Nc3ccc(C)c(C)c3)C2)cc1OC (centres unmarked),-5.96
20,COc1ccc(CNC(=O)CN2C(=O)NC(Cc3ccccc3)(c3ccccc3)C2=O)cc1OC (centres unmarked),-12.2
21,CNc1ccc(S(=O)(=O)NCC(=O)OCC(=O)Nc2cccc(Cl)c2Cl)cc1[N+](=O)[O-],-12.7
22,COc1ccc(Cl)cc1C(=O)Nc1ccc(N(C)C(C)=O)cc1,10.2

row,Structure (SMILES),"hERG current change (%, negative = inhibition) at 10uM [%]"
1,Cc1nn(CCCC(=O)Nc2ccccn2)c(C)c1[N+](=O)[O-],18.3
2,CCOCCCNC(=O)C(c1ccc(OC)cc1)N(Cc1ccc2c(c1)OCO2)C(=O)c1ccccn1 (centres unmarked),2.61
3,Cc1cccn2c(CN3CCCN(C=O)CC3)c(C(=O)N(C)CCc3ccccc3)nc12,26.6
4,COc1ccc(N(CC(=O)Nc2ccccc2C(=O)N2CCOCC2)S(=O)(=O)c2ccc(F)cc2)cc1,-44.6
5,COc1ccc(C(=O)NCc2nnc(SCC(=O)N3CCc4ccccc43)n2CCc2ccccc2)cc1,-19.1
6,CN1CCN(CCOc2cccc(Cl)c2)CC1.Cl,1.19
7,O=C(N/N=C/c1ccc(Br)s1)c1cccs1,0.404
8,Cc1nc2c(sc3nc(N4CCOCC4)c4c(c32)CC(C)(C)OC4)c(-c2ccc(Cl)cc2)c1C(=O)O,-5.71
9,CC(C)c1ccccc1NC(=O)c1ccc2ncsc2c1,-1.98
10,Cc1ccccc1C([O-])=Nc1ccc[n+](-c2nc3ccccc3nc2NS(=O)(=O)c2ccccc2)c1,-3.51
11,COc1ccc(Cl)c(Cn2c(NCCCO)nc3c2c(=O)n(C)c(=O)n3C)c1,-3.49
12,Cc1cc2nc(-c3cccnc3SCC(=O)NC3CC3)[nH]c2cc1C,7.59
13,O=C(CC1Sc2ccccc2NC1=O)OCc1cc(=O)oc2cc(O)ccc12 (centres unmarked),-51.7
14,Cc1c(NC(=O)CN2CCC(C(N)=O)CC2)cccc1[N+](=O)[O-],26.4
15,COc1ccc(CCNC(=O)c2cccn2C)cc1,20.4
16,Cc1ccc2c(CN3CCCCC3)cc(=O)oc2c1,-16.1
17,Cc1c(NC(=O)CSc2nnnn2-c2ccc(F)cc2)c(=O)n(-c2ccccc2)n1C,-2.74
18,Cc1ccc(S(=O)(=O)N(CC(=O)O)Cc2ccccc2F)cc1,3.18
19,CCOC(=O)c1c(C)[nH]c(N=Nc2ccccc2)c1C,11.3
20,C=C(C)n1c(=O)[nH]c2ccccc21,19.2
